PubChem BioAssay AID504339 (National Center for Advancing Translational Sciences (NCATS), 2011)
“And” between values parts separate entries of the source, which are not always exact repeats. Equal values may be shown once. The whole screen tested about 390,000 compounds, of which about 17,000 (4.4%) were called active. The inconclusive results got no clear call from the source; some entries with a clear call stand among them for comparison. The call rests on the fitted dose curve; in most records, active means well fitted inhibition curve with a large enough effect; inconclusive means small, poorly fitted or top-dose-only effect; inactive means no such curve, though single readings can be large or run the other way. Potencies of inconclusive entries are doubtful fits and often do not repeat.

target: Lysine-specific demethylase 4A (Homo sapiens) (UniProt O75164); experiment: qHTS Assay for Inhibitors of JMJD2A-Tudor Domain; details: AlphaScreen JMJD2A-Tudor / H3K4me3 peptide binding; activity change, negative = inhibition: at 114 µM (top of the series); further: nearly all actives have a fitted effect of over 50% in size
On the % scale 0 is the no-effect control and ±100 the full control effect; potency means the concentration at half of the fitted maximal effect; tags describe the fitted curve by direction and shape.

UniProt O75164, sequence (O75164 whole entry, looked up, the tested form may be a part): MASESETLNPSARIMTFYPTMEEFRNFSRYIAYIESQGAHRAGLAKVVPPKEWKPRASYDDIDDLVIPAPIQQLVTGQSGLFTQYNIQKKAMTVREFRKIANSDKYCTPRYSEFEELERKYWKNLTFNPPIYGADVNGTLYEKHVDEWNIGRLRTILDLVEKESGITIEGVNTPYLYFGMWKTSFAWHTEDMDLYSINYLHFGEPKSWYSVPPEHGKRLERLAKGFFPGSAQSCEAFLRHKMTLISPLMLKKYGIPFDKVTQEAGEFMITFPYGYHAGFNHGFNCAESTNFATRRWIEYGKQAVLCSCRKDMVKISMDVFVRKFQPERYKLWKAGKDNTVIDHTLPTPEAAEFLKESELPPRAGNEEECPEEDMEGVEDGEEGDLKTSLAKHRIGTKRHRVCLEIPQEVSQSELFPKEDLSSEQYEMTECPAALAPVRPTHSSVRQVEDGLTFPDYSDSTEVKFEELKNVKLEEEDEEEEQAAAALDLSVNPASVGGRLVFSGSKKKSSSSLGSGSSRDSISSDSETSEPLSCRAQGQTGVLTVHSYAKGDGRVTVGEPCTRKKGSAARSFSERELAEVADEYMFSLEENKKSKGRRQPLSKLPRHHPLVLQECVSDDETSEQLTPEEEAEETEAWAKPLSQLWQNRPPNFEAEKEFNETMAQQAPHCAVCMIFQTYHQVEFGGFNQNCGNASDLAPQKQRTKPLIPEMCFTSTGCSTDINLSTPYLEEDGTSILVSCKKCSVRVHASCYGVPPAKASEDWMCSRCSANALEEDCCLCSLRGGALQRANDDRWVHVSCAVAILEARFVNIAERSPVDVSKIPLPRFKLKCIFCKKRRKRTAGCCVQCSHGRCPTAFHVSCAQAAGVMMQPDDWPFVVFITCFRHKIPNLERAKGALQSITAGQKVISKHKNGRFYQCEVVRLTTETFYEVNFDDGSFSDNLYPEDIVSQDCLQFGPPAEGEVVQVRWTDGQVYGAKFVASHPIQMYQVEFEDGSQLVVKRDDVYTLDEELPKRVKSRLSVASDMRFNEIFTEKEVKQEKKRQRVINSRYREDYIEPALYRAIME

| Compound | activity change, negative = inhibition | Potency |
| --- | --- | --- |
| CCOC(=O)c1cc(S(=O)(=O)N2CCN(c3ccccc3OC)CC2)cn1C | inactive: -26.9% | – |
| COC(=O)C1=C(O)/C(=C\c2cc(C)n(-c3ccccc3F)c2C)N=C1C | inactive: -12.5% | – |
| CCN1CCN(c2ccc(S(=O)(=O)N3CCOCC3)cc2NC(=O)c2cc(Cl)nc3ccccc23)CC1 | inactive: -6.9% | – |
| Cc1ccc2c(c1)c(C)c(C)n2CC(O)Cn1nc(C)cc1C (stereo unspecified) | – | inconclusive: 50.1 µM [inhibitor, partial curve] |
| CCn1cc(/C=C(\NC(=O)c2ccc(OC)cc2)C(=O)NCCCn2ccnc2)c2ccccc21 | – | inconclusive: 50.1 µM [inhibitor, partial curve] |
| COc1ccc(N2CCN(C(CNS(=O)(=O)c3ccc(C)cc3)c3ccccc3)CC2)cc1 (stereo unspecified) | – | active: 20 µM |
| Cc1onc(C(=O)Nc2sc3c(c2C(N)=O)CCCC3)c1[N+](=O)[O-] | – | inconclusive: 63.1 µM [inhibitor, partial curve, poor fit] |
| CC(=O)N1CCN(CC(=O)Nc2ccc(C)c(S(=O)(=O)N(C)C)c2)CC1 | – | active: 5.62 µM |
| CCCCc1ccc(-n2nc3cc(C)c(NC(=O)c4ccc(C#N)cc4F)cc3n2)cc1 | inactive: 1.12% | – |
| O=C(CSc1nnc(NC2CCCCC2)s1)NN1C(=O)NC2(CCCCC2)C1=O | – | inconclusive: 89.1 µM [inhibitor, single point] |
| O=C(Nc1ncc(Br)s1)C(Cc1ccccc1)n1cccc1 (stereo unspecified) | – | inconclusive: 35.5 µM [inhibitor, full curve] |
| COc1cc(NC(=O)CN2C(=O)NC(c3ccccc3)(c3ccccc3)C2=O)c(C)cc1[N+](=O)[O-] | – | inconclusive: 56.2 µM [inhibitor, partial curve] |
| COc1cc(NCC(=O)Nc2cccc(S(=O)(=O)N3CCCCC3)c2)cc(OC)c1OC | – | inconclusive: 25.1 µM [inhibitor, partial curve] |
| Cc1ccccc1OCC(=O)NNC(=S)NC(=O)c1ccco1 | – | inconclusive: 79.4 µM [inhibitor, partial curve] |
| CCn1cnc2cc(NCc3nc4ccccc4n3Cc3ccccc3)ccc21 | – | active: 44.7 µM |
| Oc1ccc(CN2CCN(c3ncccn3)CC2)cc1 | – | active: 50.1 µM |
| COc1cccc(OCCn2cc(/C=N/NC(=O)c3ccncc3)c3ccccc32)c1 | – | inconclusive: 56.2 µM [inhibitor, partial curve] |
| CN1CCCC(CC2Oc3ccccc3Sc3ccccc32)C1 (stereo unspecified) | – | active: 8.91 µM |
| CCCCNC(=O)C1CCCN(S(=O)(=O)CCC)C1 (stereo unspecified) | inactive: -14.4% | – |
| CCN(CC)S(=O)(=O)c1ccc(C)c(NC(=O)CN2C(=O)NC3(CCCC3)C2=O)c1 | inactive: -25.4% | – |
| CC/C(=N/Nc1ccccc1Cl)c1cnnc(-c2ccccc2)n1 | – | inconclusive: 31.6 µM [inhibitor, partial curve] |
| COc1ccc(/C=N/NC(=O)Cn2nc(C)c([N+](=O)[O-])c2C)cc1 | – | active: 79.4 µM |
| Cc1ccc(NCc2n[nH]c(=S)n2-c2ccccc2)cc1 | – | inconclusive: 70.8 µM [inhibitor, single point] |
| O=C(Nc1ccc(Cl)cc1)[C@@H]1[C@@H]2C(=O)N(c3cccc(F)c3)C(=O)[C@@H]2[C@H]2C=CC=NN21 | – | inconclusive: 79.4 µM [inhibitor, single point] |

| Compound | activity change, negative = inhibition | Potency |
| --- | --- | --- |
| Cc1ccc2[nH]c(=O)c(CN(Cc3cccs3)Cc3nnnn3Cc3ccco3)cc2c1 | – | inconclusive: 31.6 µM [inhibitor, partial curve] |
| NC(=O)c1cc[n+](CC(=O)c2ccc(NC(=O)c3ccccc3)cc2)cc1 | – | inconclusive: 15.8 µM [inhibitor, partial curve, poor fit] |
| Cc1nc(N2CCN(Cc3ccc(Cl)cc3)CC2)c2oc3ccccc3c2n1 | inactive: -18.2% | – |
| CCn1c(-c2cccn(Cc3ccccc3)c2=O)n[nH]c1=S | – | inconclusive: 35.5 µM [inhibitor, full curve] |
| CN(C)c1ccc(/C=C(\C#N)c2ccccc2)cc1 | – | inconclusive: 50.1 µM [inhibitor, partial curve] |
| Cc1ccc2oc(=O)c3cnn(CC(=O)Nc4cc(-c5cccc(F)c5)no4)c3c2c1 | inactive: -1.41% | – |
| COc1ccccc1Nc1nc(-c2c(C)[nH]c3ccccc23)cs1 | – | active: 50.1 µM |
| COc1cc(O)c(C(CC(=O)N2CCN(c3ccccc3)CC2)c2ccc3c(c2)OCO3)c(OC)c1 (stereo unspecified) | – | inconclusive: 39.8 µM [inhibitor, partial curve] and inconclusive: 44.7 µM [inhibitor, partial curve] |
| COc1cc(OC)c(/C=N/N2CCN(c3ccccc3OC)CC2)c(OC)c1 | – | inconclusive: 56.2 µM [inhibitor, partial curve, poor fit] |
| CCCCOc1ccc(CNC(=O)c2cccc(NC(=O)N3CCSc4ncccc43)c2)cc1 | inactive: -14.8% | – |
| O=C(COc1ccc(F)cc1)NCC1CCCO1 (stereo unspecified) | – | inconclusive: 100 µM [inhibitor, partial curve] |
| O=C/C=C/c1coc2ccc3ccccc3c2c1=O | – | inconclusive: 89.1 µM [inhibitor, partial curve] |
| COCc1c(C(=O)N(C)Cc2ccccc2N2CCCC2)oc2ccccc12 | – | active: 44.7 µM |
| C(=N\Nc1nc(-c2ccccc2)cs1)/c1ccncc1 | – | inconclusive: 100 µM [inhibitor, partial curve, poor fit] |
| O=C(NCCc1ccc(F)cc1)c1ccc(Cl)c(S(=O)(=O)N2CCOCC2)c1 | inactive: -23.4% | – |
| O=C(c1ccc(Cl)cc1)[C@@H]1[C@@H]2C(=O)N(c3cccc4ccccc34)C(=O)[C@@H]2C2c3ccccc3C=NN21 (stereo partly specified) | – | inconclusive: 22.4 µM [inhibitor, single point] |
| CCN(CCNC(=O)C1CCC(=O)N1Cc1ccc(C)cc1)c1ccccc1 (stereo unspecified) | inactive: 3.74% | – |
| COc1cc(-c2cc(C(=O)Nc3cccc(S(=O)(=O)N(C)C)c3)c3ccccc3n2)cc(OC)c1OC | inactive: -4.45% | – |
| Cc1ccc(OCC(=O)NC2=NCCS2)cc1 | inactive: -16.9% | – |
| O=C1CC(Nc2ccc(N3CCOCC3)cc2)C(=O)N1Cc1ccccc1 (stereo unspecified) | – | inconclusive: 39.8 µM [inhibitor, partial curve] |
| COc1ccc(CC(=O)Nc2nc3c(s2)CC(C)CC3)cc1 (stereo unspecified) | – | inconclusive: 56.2 µM [inhibitor, partial curve] |
| CCOc1ccc(NC(=O)Nc2ccc3c(c2)nc(C)n3C)cc1 | inactive: 0.735% [at 11.4 µM] | – |
| COc1ccc2c(c1)c1c(c(=O)n(CCc3ccccc3)c(=O)n1Cc1cccc(Cl)c1)n2C | inactive: 31% | – |
| Cc1ccc(Nc2nc(C(=O)NCCCN3CCOCC3)cs2)cc1 | – | inconclusive: 100 µM [inhibitor, single point] |

| Compound | activity change, negative = inhibition | Potency |
| --- | --- | --- |
| CC1CCN(S(=O)(=O)c2ccc3c(c2)CCN3C(=O)Nc2ccccc2Br)CC1 | inactive: -17.1% | – |
| O=C(COC(=O)/C=C/c1cccc(Cl)c1)NCCc1ccccc1 | – | inconclusive: 89.1 µM [inhibitor, single point] |
| CCOC(=O)c1c(NC(=O)CC2SC(N)=NC2=O)sc2c1CCCC2 (stereo unspecified) | inactive: -16.3% | – |
| CCOc1ccc(Br)cc1S(=O)(=O)Nc1ccc(N2CCOCC2)cc1 | inactive: -17.9% | – |
| Cc1ccc(C2/C(=C(\O)c3ccc4c(c3)OCCO4)C(=O)C(=O)N2CC2CCCO2)cc1 (stereo unspecified) | – | inconclusive: 17.8 µM [inhibitor, partial curve, poor fit] |
| O=c1[nH]c2ccc(S(=O)(=O)N3CCCCC3)cc2o1 | – | inconclusive: 100 µM [inhibitor, partial curve] |
| O=C1NN=C(CSc2n[nH]c(=S)s2)CS1 | – | active: 17.8 µM |
| O=C(/C=C/c1ccc(Cl)cc1)N1CCN(c2ccc(Cl)cc2[N+](=O)[O-])CC1 | – | inconclusive: 20 µM [inhibitor, full curve] |
| CN(C)c1ccc(/C=C2/C[N+](C)(C)C/C(=C/c3ccc(N(C)C)cc3)C2=O)cc1 | – | active: 39.8 µM |
| CCOc1ccccc1Nc1nc2ccccc2c2nncn12 | inactive: 11.3% | – |
| O=C(NCC1CCCO1)c1ccc2c(=O)n(CC3CCCO3)c(=S)[nH]c2c1 (stereo unspecified) | – | active: 7.94 µM |
| C=CCn1c(=O)c2c(nc3n2CCCN3CCc2ccc(OC)c(OC)c2)n(C)c1=O | – | inconclusive: 56.2 µM [inhibitor, partial curve] |
| O=C(Nc1ccc(Nc2ccccc2)cc1)c1ccc(Br)o1 | – | active: 39.8 µM |
| COc1cc(/C=N/n2c(=S)[nH]nc(C)c2=O)cc([N+](=O)[O-])c1O | – | inconclusive: 39.8 µM [inhibitor, single point] |
| CC(=O)n1cc([C@@H]2C=C(C(=O)N3CCN(Cc4ccccc4)CC3)O[C@H](OCc3ccc(CO)cc3)C2)c2ccccc21 | – | inconclusive: 56.2 µM [inhibitor, partial curve] |
| COc1cccc(NC(=O)c2ccc3c(O)c(S(=O)(=O)c4ccccc4)c(=O)[nH]c3c2)c1 | – | active: 44.7 µM |
| CC(=O)Nc1ccc(NC(=O)CSC2=NS(=O)(=O)c3cc(Cl)ccc3N2)cc1 | inactive: -13.8% | – |
| Nc1c(SCCC(=O)O)ccc2c1C(=O)c1ccccc1C2=O | – | inconclusive: 44.7 µM [inhibitor, partial curve] |
| COc1ccc(C2c3ccc4ccccc4c3Oc3ncn(CCCN(C)C)c(=N)c32)cc1 (stereo unspecified) | – | inconclusive: 44.7 µM [inhibitor, partial curve, poor fit] |
| COC(CNC(=O)c1ccc(Cn2c(=S)[nH]c3cc4c(cc3c2=O)OCO4)cc1)OC | – | active: 22.4 µM |
| CCN(C(=O)Cn1c(C(=O)OC)cc2oc3ccccc3c21)c1cccc(C)c1 | inactive: -25.1% | – |
| Clc1ccc(CO/N=C2\CCCc3nonc32)cc1 | – | active: 70.8 µM |
| COc1ccc(OCC(=O)Nc2nc3c(s2)CCCC3)cc1 | – | inconclusive: 56.2 µM [inhibitor, single point] |
